Source: PubChem BioAssay AID504832 (National Center for Advancing Translational Sciences (NCATS), 2011)
Screen size: about 310,000 compounds; about 18,000 (5.8%) were called active. This list was built around the results that the source calls inconclusive (neither active nor inactive); the mix of calls is not that of the screen. Calls follow the shape of the dose curve; as a rule, active = well fitted inhibition curve with a large enough effect; inconclusive = small, poorly fitted or top-dose-only effect, or another doubt; inactive = no such curve, though single readings can be large or run the other way. No potency is given beside an inconclusive call; the fits are too rough.

assay: Primary qHTS for delayed death inhibitors of the malarial parasite plastid, 48 hour incubation; settings: P. falciparum luciferase growth in erythrocytes; series mostly up to 28.7 µM; activity change, negative = inhibition: at the top concentration
Outline: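 Compounds are pin-transferred into medium, infected erythrocytes (2% hematocrit, 0.1% parasitemia final) are added, and plates sit one parasite generation at 37 C in 5% CO2. Detection reagent is then added and luminescence measured.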
% is scaled to controls: 0 for no effect and ±100 for the full control effect; potency is read from the fitted curve at half-maximal effect; tags tell the direction and shape of the fitted curve.

Structure (SMILES)	Potency	activity change, negative = inhibition
O=C(CN1CCN(c2ccccn2)CC1)Nc1ccccc1Br	active: 5.22 µM	–
O=C(CSc1nc(Nc2ccccc2)nc(N2CCOCC2)n1)Nc1ccccc1Cl	inconclusive [inhibitor, single point]	–
CSCC(=O)N1CCCC(CNC(=O)c2ccc(-c3ccccc3)cc2)C1 (stereo not given)	inconclusive [inhibitor, single point]	–
Cc1ccc(NC(=O)CSc2nnnn2C2CCCC2)cc1S(=O)(=O)N1CCOCC1	inconclusive [inhibitor, single point]	–
N#C/C(=C(/O)COC(=O)Cc1c[nH]c2ccccc12)c1nc2ccccc2[nH]1	–	inactive: 8.23%
CN1CCN(c2nc(-c3ccccc3)ncc2S(=O)(=O)c2ccccc2)CC1	inconclusive [inhibitor, partial curve]	–
COc1cc(/C=N/NC(=O)CC23CC4CC(CC(C4)C2)C3)cc(Br)c1OCC(=O)N(C)C	active: 13.1 µM	–
O=C(O)c1ccc(-c2nc3scc(-c4ccccc4)c3c(=O)[nH]2)cc1	–	inactive: -6.54%
Cc1ccc(C(C)C)c(OCc2nn(CC(=O)c3ccc(OC(F)F)cc3)c3[n+]2CCCCC3)c1	active: 1.85 µM	–
C/C(=N/NC(=O)c1cccc(N2CCCC2=O)c1)c1ccc(Br)cc1	inconclusive [inhibitor, partial curve]	–
COc1cc(C(CC(=O)O)n2cnnn2)ccc1OC(C)C (stereo not given)	–	inactive: 33.9%
Cc1sc2ncnc(N3CCC(C(=O)Nc4nc(-c5ccc(F)cc5)cs4)CC3)c2c1C	inconclusive [inhibitor, single point]	–
CCCC1=NN2C(=N)/C(=C\c3cc(C)n(Cc4ccccc4)c3C)C(=O)N=C2S1	–	inactive: 12%
Cc1nn(C)cc1NC(=O)c1nn(C)cc1[N+](=O)[O-]	–	inactive: 0.696%
O=C(NCc1ccc2c(c1)OCO2)c1cccc(C(=O)NCc2ccc3c(c2)OCO3)c1	inconclusive [inhibitor, partial curve, poor fit]	–
CCOC(=O)C1=C(CN2CCN(C(=O)OCC)CC2)NC(=O)NC1c1ccc2c(c1)OCO2 (stereo not given)	inconclusive [inhibitor, partial curve, poor fit]	–
C[C@H]1COC2=C1C(=O)C(=O)c1c2ccc2c1CCCC2(C)C	inconclusive [inhibitor, single point]	–
Cn1c(C(=O)N2COCC2(C)C)cc2c(=O)n3ccccc3nc21	–	inactive: 84.9%
CN(CCCN1CCCCC1)C(=O)c1cc(COc2ccc(F)cc2F)on1	inconclusive [inhibitor, partial curve, poor fit]	–
CC(C)(C)c1cc(C(=O)NN)n(Cc2ccc(F)cc2)n1	inconclusive [inhibitor, partial curve, poor fit]	–
O=C(N/C(=C/c1cccc([N+](=O)[O-])c1)C(=O)N1CCCCC1)c1ccco1	–	inactive: 6.69%
Cc1ccc(C)c(Cn2nnc3c(=O)[nH]c(C4CCCN(C(=O)c5cccs5)C4)nc32)c1 (stereo not given)	inconclusive [inhibitor, partial curve]	–
CN(C)CCNC(=O)CNC(=S)N(Cc1ccccc1)Cc1ccccc1F	–	inactive: 303%
N#CCCN1CCN(Cc2cc(-c3ccccc3)ccc2O)CC1	inconclusive [inhibitor, single point]	–

Structure (SMILES)	Potency	activity change, negative = inhibition
O=C1CCC(=O)N(O)CCCCCNC(=O)CCC(=O)N(O)CCCCCNC(=O)CCC(=O)N(O)CCCCCN1	inconclusive [inhibitor, partial curve, poor fit]	–
O=C(CCOc1ccccc1)Nc1ccc(Cl)c(S(=O)(=O)N2CCOCC2)c1	inconclusive [inhibitor, single point]	–
CC(=O)N1CCN(C2c3cccc4cccc(c34)C2NS(=O)(=O)c2ccccc2)CC1 (stereo not given)	inconclusive [inhibitor, single point]	–
CCCCCCN(C(=O)CCCCCN1C(=O)NC(c2ccc(-c3ccccc3)cc2)C(C(=O)OCc2ccccc2)=C1C)C(C(=O)NCCCC)c1ccc(O)cc1 (stereo not given)	inconclusive [inhibitor, full curve]	–
Cc1cccc(N=C2NC(=O)/C(=C/c3cccnc3)S2)c1C	active: 13.1 µM	–
Cc1cc(C(C)(C)C)oc1C(=O)N(CC(=O)NC1CCCC1)c1c(C)cccc1C	inconclusive [inhibitor, partial curve]	–
CCCCNC(=O)c1ccc(NC(=O)CC2SC(N3CCCC3)=NC2=O)cc1 (stereo not given)	inconclusive [inhibitor, single point]	–
Cc1nn(-c2ccccc2)c2nc(N)c(C#N)c(-c3ccc(C(C)(C)C)cc3)c12	inconclusive [inhibitor, partial curve]	–
COc1cccc(OCc2cc(C(=O)N(C)Cc3nccn3C)no2)c1	–	inactive: 18.2%
CC(NC(=O)CSC(=S)N(C)C)C12CC3CC(CC(C3)C1)C2 (stereo not given)	–	inactive: 1.65%
COc1cc(OC)cc(C(C)=O)c1	–	inactive: 1.79%
CCn1c(CCn2c3ccccc3c3ccccc32)n[nH]c1=S	inconclusive [inhibitor, single point]	–
Nc1ccn(Cc2cccc(F)c2)n1	–	inactive: 12.1%
COc1cc2[nH]c(=O)n(CCCC(=O)N3CC=C(c4ccccc4)CC3)c(=O)c2cc1OC	inconclusive [inhibitor, single point]	–
Cc1nnc(SC(C)C(=O)NCC2CCCO2)s1 (stereo not given)	–	inactive: 22.4%
O=C(C[n+]1ccccc1)N/N=C/c1cccs1	–	inactive: -13.2%
COc1ccccc1NC(=O)COc1ccc(Br)cc1CNCCCN1CCOCC1	inconclusive [inhibitor, single point]	–
CCCNC(=O)c1onc(CSc2ccc(F)cc2)c1C(=O)NCC1CC1	inconclusive [inhibitor, single point]	–
Cn1ccnc1SCc1nc2c(cnn2-c2ccccc2)c(=O)[nH]1	–	inactive: 19.8%
CC1(C)Cc2c(sc(NC(=O)C(=O)NCC3CCCO3)c2C(=O)O)CO1 (stereo not given)	inconclusive [inhibitor, partial curve]	–
CCCCN(CCCC)CCCNC(=O)Cn1cc2c(n1)-c1c(oc(C(=O)N3CCCC3)c1C)CC2	active: 11.7 µM	–
O=C(Cc1ccccc1)NCC(=O)N1CCC1	–	inactive: 21%
COC(=O)c1ccc(N2CCN(S(=O)(=O)c3ccc(Br)cc3)CC2)c([N+](=O)[O-])c1	inconclusive [inhibitor, single point]	–
Cc1ccc(-c2[nH]ncc2CN2CCN(C(=O)c3cccs3)CC2)cc1C	–	inactive: -9.13%

Structure (SMILES)	Potency	activity change, negative = inhibition
CC(C)Cc1nnc(NC(=O)CCC(=O)NC2CCCCCCC2)s1	–	inactive: -17.3%
Cc1ccc(NC2=C(NC(=O)c3ccccc3)C(=O)c3ccccc3C2=O)cc1Cl	active: 0.294 µM	–
COc1cc(C(C)=O)ccc1OCc1cc(C(=O)N(C)CCC2CCCCO2)no1 (stereo not given)	–	inactive: -5.88%
Cn1c(=O)c2c(SCC(=O)NC3CCCC3)nc(CC(C)(C)C)nc2n(C)c1=O	inconclusive [inhibitor, single point]	–
COc1cccc(N2CCN(C(=O)C3CCN(S(=O)(=O)c4ccc5c(c4)CC(C)N5C(C)=O)CC3)CC2)c1 (stereo not given)	inconclusive [inhibitor, partial curve]	–
CCCCn1c(SCc2c(C)noc2C)nc2cc(S(N)(=O)=O)ccc21	inconclusive [inhibitor, partial curve, poor fit]	–
COCCNC(=S)NNC(=O)c1cc(-c2cccnc2)nc2ccccc12	inconclusive [inhibitor, partial curve, poor fit]	–
CCC(C)(C)NC(=O)C(c1cccs1)N(CC1CCCO1)C(=O)Cn1nnc2ccccc21 (stereo not given)	inconclusive [inhibitor, single point]	–
Cc1ccc(N2C(=O)C(Cc3ccc(O)cc3)NC2=S)cc1C (stereo not given)	inconclusive [inhibitor, single point]	–
Cc1c(CCO)sc[n+]1CC(=O)OC12CC3CC(CC(C3)C1)C2	inconclusive [inhibitor, partial curve]	–
CC(=O)Nc1ccc(NC(=O)c2ccc(CN3CCc4ccccc4C3)cc2)cc1	inconclusive [inhibitor, full curve, poor fit]	–
Cc1cccc(-n2cc(CN3CCN(C(=O)c4ncn[nH]4)CC3)c(-c3cccc(F)c3)n2)c1	inconclusive [inhibitor, single point]	–
O=C(C1CCC(C(=O)N2CCc3ccccc32)CC1)N1CCc2ccccc21 (stereo not given)	–	inactive: 2.3%
CN1C(=O)/C(=C/c2ccccc2OCc2cccc(F)c2)NC1=S	inconclusive [inhibitor, partial curve]	–
COc1ccc(Oc2ccc(S(=O)(=O)N3CCCCC3)cc2S(=O)(=O)N2CCCCC2)cc1	active: 10.4 µM	–
CCc1noc(C)c1C(=O)N1CCC(CCC(=O)Nc2cccc(C)c2)CC1	–	inactive: -21.1%
COc1ccc(C(=O)Nc2ccc(C(=O)O)cc2NC(=O)c2ccc(OC)cc2)cc1	–	inactive: 7.74%
CCOC(=O)C1C(c2ccccc2)C(C(=O)OCC)C1c1ccccc1 (stereo not given)	inconclusive [inhibitor, full curve]	–
O=C(Nc1ncccc1Cl)c1ccccc1F	–	inactive: 48.2%
Cc1ccc(C)c(NC(=O)CN(C)C(=O)c2ccc(S(=O)(=O)N(C)c3ccccc3)cc2)c1	inconclusive [inhibitor, single point]	–
COc1ccccc1CNC(=O)CCC(=O)N1C[C@H]2C[C@@H](C1)c1cccc(=O)n1C2	–	inactive: 2.7%
COc1ccccc1C(C)NC(=O)c1ccccc1SCC(=O)N1CCCC1 (stereo not given)	–	inactive: -23.4%
